Results published in the supplement of paper PMC3334620.
Over roughly 33,000 sequences, “E-score (-0.5 to 0.5)” has its median near -0.054; the highest 2% begin near 0.35. The list shows a part of the results.

biological target: T1, Stb5 (UniProt P38699); assay: PBM E-score (8-mer binding enrichment) (E-score (-0.5 to 0.5)); higher = stronger / more preferred TF binding; most listed sequences are background and not binding sites; settings: protein concentration: 200 nM; construct: GST-full length
T1 sequence: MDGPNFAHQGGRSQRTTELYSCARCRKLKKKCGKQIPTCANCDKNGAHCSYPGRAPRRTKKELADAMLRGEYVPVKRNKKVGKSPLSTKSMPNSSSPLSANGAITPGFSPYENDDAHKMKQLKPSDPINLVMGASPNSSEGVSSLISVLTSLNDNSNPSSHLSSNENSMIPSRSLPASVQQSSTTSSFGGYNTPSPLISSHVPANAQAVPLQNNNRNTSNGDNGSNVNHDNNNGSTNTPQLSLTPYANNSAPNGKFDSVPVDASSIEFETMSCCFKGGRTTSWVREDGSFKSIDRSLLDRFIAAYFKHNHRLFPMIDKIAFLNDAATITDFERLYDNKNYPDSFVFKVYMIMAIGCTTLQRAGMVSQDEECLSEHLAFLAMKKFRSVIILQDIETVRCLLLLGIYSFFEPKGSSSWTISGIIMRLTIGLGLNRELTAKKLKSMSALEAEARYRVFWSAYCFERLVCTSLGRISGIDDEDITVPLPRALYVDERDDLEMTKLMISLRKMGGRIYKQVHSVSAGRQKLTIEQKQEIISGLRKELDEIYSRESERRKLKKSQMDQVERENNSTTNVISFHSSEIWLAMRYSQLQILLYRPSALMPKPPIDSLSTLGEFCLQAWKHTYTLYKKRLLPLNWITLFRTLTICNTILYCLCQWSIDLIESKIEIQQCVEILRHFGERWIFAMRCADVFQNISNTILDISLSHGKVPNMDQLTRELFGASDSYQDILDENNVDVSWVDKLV
Method: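 Universal 'all 10-mer' protein binding microarrays (Agilent AMADID 015681) probed with GST-tagged S. cerevisiae TFs (full-length or DBD) made by in vitro transcription/translation (PURExpress), about 100-200 nM. Bound TF was detected with fluorescent anti-GST. Each ungapped 8-mer (which stands for itself and its reverse complement) is scored by the PBM enrichment score (E-score), a modified Wilcoxon-Mann-Whitney statistic from -0.5 to +0.5, computed with the Universal PBM Analysis Suite. Scale: above 0.35 generally sequence-specific binding.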

Sequence | PBM E-score
ACAACGTG | -0.1
CAGCTAAG | -0.285
GGCTAGAC | -0.0653
CGGCAACG | 0.172
CTATCCTA | 0.00071
CGGTAATC | 0.25
AGCATCCA | -0.175
GCAAATCC | 0.121
ATGGTTAG | -0.0567
CTCCACAC | -0.288
AACCGGAG | 0.302
CTGCAAAG | -0.273
GGGGAGCA | 0.027
GCCGCCAC | 0.191
GCCTGTTA | -0.157
AGATGAAG | 0.0289
GGCAACCA | -0.0509
ACTCATGG | -0.226
ATTTCTTC | -0.0749
AGGGGCTG | -0.319
CCATTGCA | -0.0187
CTCGAACA | -0.31

Sequence | PBM E-score
CAATTGAC | -0.131
AGTTCTAC | -0.178
ACCGACCG | 0.346
CCGTAGCC | 0.114
ACTTACTG | 0.0687
CCACCGCC | 0.282
ATTTGGCA | -0.184
GAGACTCA | -0.104
GATACCGA | 0.321
GAGAGTAC | -0.0857
GGATACCA | 0.0741
AAGGTCGT | -0.196
AGGGAGTC | -0.305
AAAGCCTC | -0.0461
AGTGGAGC | -0.106
ATAAATCA | -0.129
CGGAGCTA | 0.446
AGGTGGCA | -0.0836
TATGCCAA | -0.191
CCGGTGAA | 0.307
AACTTGAC | -0.154
CTACGGAA | -0.0555

Sequence | PBM E-score
GCATTAGA | 0.00907
CCCTGCAC | -0.052
GCGCCGAC | 0.28
ATTTACCA | 0.101
ACAGTTGC | -0.201
CCGCTTCC | 0.229
CCACTTAA | -0.078
AGGTGCTC | -0.354
AAGAGATC | 0.0165
CATCTACG | 0.0874
AAACTCGC | -0.0595
AGCCCCAC | 0.065
ACAGTGGC | -0.15
GGGCTGGA | -0.153
CGTTCAAG | -0.00789
GCAGAGGA | -0.247
TCCCATAA | -0.245
AACACAGT | -0.194
TACCTCGA | -0.111
CAGTAACG | -0.0414
GTCGGCGA | 0.242
TGATCGAA | -0.163

Sequence | PBM E-score
CAGCTCAG | -0.221
AATGGTGT | -0.0334
CCTGTCCC | -0.175
ATATTTCC | 0.348
TATGCCGA | 0.294
ATGTCGTA | -0.313
AGAACCTG | -0.261
GATTAAAC | 0.221
CGTGTCCA | -0.174
TAACGATA | -0.224
AGGGACTC | -0.24
ACCAAGTG | -0.168
AGGGCGGA | 0.338
AAGGCTGT | -0.145
AGGGCCTC | -0.187
CGCGGTAA | 0.343
GGTCGAAA | 0.0139
GACCCTAC | -0.0737
GGTACTCA | -0.0471
ATAGCGAT | -0.136
